{"source": "PubChem BioAssay AID1159554", "about": "(Broad Institute, 2015)", "note": "The whole screen tested about 94,000 compounds, of which about 2,100 (2.2%) were called active. Inconclusive means that the source gave no clear call. Such entries were picked first, then a sample of the others. Cut-off read from the data, not from the text of the source: active = activity change below about -80%; inconclusive = no clear call, values can overlap the other calls; inactive = above that."}
{"experiment": "P. falciparum Dd2 growth inhibitors, primary screen, SYBR Green fluorescence, single dose replicates (AID 1159554)", "details": "72 h, at 10 µM, stronger effect = lower value"}
{"smiles": "COc1ccc(CN(C)C[C@H]2OCCCC[C@H](C)Oc3ccc(NC(=O)Nc4ccccc4)cc3C(=O)N([C@H](C)CO)C[C@H]2C)cc1", "activity change": "inconclusive: -82.4%"}
{"smiles": "CO[C@H]1CN(C)C(=O)c2cc(NC(=O)c3ccccc3F)ccc2OC[C@H](C)N(C)C[C@H]1C", "activity change": "inconclusive: -83%"}
{"smiles": "COc1cc(CN2CC3(CN(C(=O)NC(C)C)C3)c3c(n(C)c4cc(OC)ccc34)[C@@H]2CO)cc(OC)c1", "activity change": "inactive: -40.2%"}
{"smiles": "C[C@H](CO)N1C[C@H](C)[C@@H](CN(C)C(=O)Cc2ccccc2)Oc2cc(C#Cc3ccccc3F)ccc2S1(=O)=O", "activity change": "inconclusive: -82.5%"}
{"smiles": "C[C@H](CO)N1C[C@H](C)[C@H](CN(C)Cc2ccc(Cl)c(Cl)c2)Oc2c(NC(=O)CCCCCC(=O)Nc3ccccc3N)cccc2C1=O", "activity change": "active: -88.4%"}
{"smiles": "CC(C)CC#Cc1ccc2c(c1)O[C@@H](CN(C)CC1CCOCC1)[C@H](C)CN([C@H](C)CO)S2(=O)=O", "activity change": "inconclusive: -80.3%"}
{"smiles": "C[C@H]1CN([C@@H](C)CO)C(=O)c2cc(C#CC3CCCC3)cnc2O[C@@H]1CN(C)S(C)(=O)=O", "activity change": "inactive: 10.1%"}
{"smiles": "CCS(=O)(=O)N1CCC2(CC1)CN(S(=O)(=O)c1ccccc1)[C@H](CO)c1c2c2ccc(OC)cc2n1C", "activity change": "inconclusive: -83.5%"}
{"smiles": "C[C@@H]1CN([C@H](C)CO)C(=O)c2cc(NC(=O)Nc3ccc(F)cc3)ccc2O[C@@H]1CN(C)Cc1ccc(C(=O)Nc2ccccc2N)cc1", "activity change": "inconclusive: -81.2%"}
{"smiles": "CO[C@H]1CN(C)C(=O)c2cc(NC(=O)c3ccc(F)cc3)ccc2OC[C@H](C)N(C(=O)c2ccc(F)cc2)C[C@H]1C", "activity change": "inconclusive: -80%"}
{"smiles": "Cc1ccc(-c2ccc3c(c2)O[C@H](CN(C)Cc2cccnc2)[C@@H](C)CN([C@H](C)CO)S3(=O)=O)cc1", "activity change": "inconclusive: -80.8%"}
{"smiles": "C[C@H](CO)N1C[C@H](C)[C@H](CN(C)C)Oc2cc(C#CCN(C)C)ccc2S1(=O)=O", "activity change": "inactive: 7.48%"}
{"smiles": "C[C@H](CO)N1C[C@H](C)[C@H](CN(C)Cc2ccc(C(=O)Nc3ccccc3N)cc2)Oc2c(NC(=O)C3CCCCC3)cccc2C1=O", "activity change": "inconclusive: -81.6%"}
{"smiles": "COc1ccc(NC(=O)Nc2ccc3c(c2)C(=O)N([C@@H](C)CO)C[C@H](C)[C@@H](CN(C)S(=O)(=O)c2ccc(F)cc2)OCCCC[C@@H](C)O3)cc1", "activity change": "inconclusive: -80.3%"}
{"smiles": "COc1ccc(S(=O)(=O)Nc2ccc3c(c2)[C@@H]2C[C@H](CC(=O)NCC4CC4)O[C@@H](CO)[C@@H]2O3)cc1", "activity change": "inactive: 5.43%"}
{"smiles": "Cc1ccc(S(=O)(=O)N(C)C[C@H]2OCCCC[C@H](C)Oc3ccc(NC(=O)Cc4ccccc4)cc3C(=O)N([C@H](C)CO)C[C@H]2C)cc1", "activity change": "inconclusive: -80.8%"}
{"smiles": "CS(=O)(=O)Nc1ccc2c(c1)[C@@H]1C[C@@H](CC(=O)NCc3ccc(-c4ccccc4)cc3)O[C@H](CO)[C@@H]1O2", "activity change": "inactive: -8.76%"}
{"smiles": "CN1c2ccc(-c3cccc(C#N)c3)cc2[C@H]2[C@H](CCN2S(=O)(=O)c2ccccc2F)[C@@H]1CO", "activity change": "inactive: -6.99%"}
{"smiles": "CO[C@@H]1CN(C)C(=O)c2cc(NC(=O)c3ccc(Oc4ccccc4)cc3)ccc2OC[C@H](C)NC[C@H]1C", "activity change": "inactive: -76%"}
{"smiles": "CO[C@H]1CN(C)C(=O)c2ccc(NC(=O)Nc3ccccc3)cc2OC[C@@H](C)N(C(=O)CN(C)C)C[C@H]1C", "activity change": "inactive: 7.58%"}
{"smiles": "COc1ccc(S(=O)(=O)N(C)C[C@@H]2Oc3cc(-c4ccccc4OC)ccc3S(=O)(=O)N([C@@H](C)CO)C[C@H]2C)cc1", "activity change": "inconclusive: -81.5%"}
{"smiles": "C[C@@H]1CN([C@H](C)CO)C(=O)c2cc(NC(=O)c3ccncc3)ccc2O[C@@H](C)CCCCO[C@@H]1CN(C)S(=O)(=O)c1ccc(Cl)cc1", "activity change": "inconclusive: -80.2%"}
{"smiles": "C[C@@H]1CN([C@H](C)CO)C(=O)c2cc(NC(=O)CCC(F)(F)F)ccc2O[C@@H](C)CCCCO[C@H]1CN(C)S(=O)(=O)c1ccc(Cl)cc1", "activity change": "inactive: -76.1%"}
{"smiles": "Cc1ccc(S(=O)(=O)N(C)C[C@@H]2OCCCC[C@@H](C)Oc3ccc(NC(=O)C4CCCCC4)cc3C(=O)N([C@H](C)CO)C[C@H]2C)cc1", "activity change": "inconclusive: -80.1%"}
{"smiles": "CC(C)(C)[S@](=O)N1Cc2cc(C(=O)NCCN3CCCCC3)nc(-c3cccc(-c4ccc(C#N)cc4)c3)c2[C@@H]1CCO", "activity change": "inconclusive: -80.9%"}
{"smiles": "C[C@H]1CN([C@@H](C)CO)C(=O)c2cc(NC(=O)CCC(F)(F)F)ccc2O[C@H]1CN(C)CC1CCCCC1", "activity change": "inactive: -3.86%"}
{"smiles": "C[C@H]1CCCCO[C@@H](CN(C)C(=O)C2CCCCC2)[C@@H](C)CN([C@@H](C)CO)C(=O)c2cc(NC(=O)C3CCCCC3)ccc2O1", "activity change": "inconclusive: -81.4%"}
{"smiles": "CO[C@@H]1CN(C)C(=O)c2ccc(NC(=O)Nc3ccc(F)cc3)cc2OC[C@@H](C)N(C(=O)c2ccc(F)cc2)C[C@H]1C", "activity change": "inconclusive: -81.3%"}
{"smiles": "COc1ccc(S(=O)(=O)Nc2cccc3c2O[C@H](CN(C)Cc2ccc(C(=O)Nc4ccccc4N)cc2)[C@H](C)CN([C@@H](C)CO)C3=O)cc1", "activity change": "active: -86.1%"}
{"smiles": "Cc1ccc(S(=O)(=O)N(C)C[C@@H]2OCCCC[C@H](C)Oc3ccc(NC(=O)Nc4ccc5c(c4)OCO5)cc3C(=O)N([C@@H](C)CO)C[C@H]2C)cc1", "activity change": "inconclusive: -80.1%"}
{"smiles": "O=C(c1ccccc1F)N1CC(=O)N2[C@H](CO)[C@H](c3ccc(-c4cccnc4)cc3)[C@H]2C1", "activity change": "active: -85.7%"}
{"smiles": "Cc1noc(C)c1NC(=O)Nc1ccc2c(c1)C(=O)N([C@@H](C)CO)C[C@H](C)[C@@H](CN(C)Cc1ccc(Cl)c(Cl)c1)OCCCC[C@@H](C)O2", "activity change": "active: -85.3%"}
{"smiles": "COc1ccccc1S(=O)(=O)N1C[C@@H](O)COC[C@H]2O[C@H](CC(=O)O)CC[C@@H]21", "activity change": "inactive: -3.23%"}
{"smiles": "CO[C@@H]1CN(C)C(=O)c2ccc(NC(=O)c3ccc(-c4ccccc4)cc3)cc2OC[C@H](C)NC[C@@H]1C", "activity change": "inconclusive: -81.3%"}
{"smiles": "Cc1ccc(S(=O)(=O)Nc2ccc3c(c2)C(=O)N([C@@H](C)CO)C[C@H](C)[C@@H](CN(C)C(=O)Nc2ccccc2)OCCCC[C@@H](C)O3)cc1", "activity change": "inconclusive: -81%"}
{"smiles": "O=C(NCC[C@H]1CC[C@@H](NC(=O)c2cccnc2)[C@H](CO)O1)Nc1ccc(Cl)cc1", "activity change": "inactive: -27.4%"}
{"smiles": "COc1ccc(NC(=O)Nc2ccc3c(c2)C(=O)N([C@@H](C)CO)C[C@H](C)[C@@H](CN(C)C(=O)C2CCCCC2)OCCCC[C@@H](C)O3)cc1", "activity change": "inconclusive: -80.2%"}
{"smiles": "Cc1ccc(S(=O)(=O)Nc2ccc3c(c2)C(=O)N([C@@H](C)CO)C[C@@H](C)[C@@H](CN(C)C(=O)Nc2ccc4c(c2)OCO4)OCCCC[C@H](C)O3)cc1", "activity change": "inconclusive: -80.3%"}
{"smiles": "CC=Cc1ccc2n(c1=O)C[C@@H]1[C@@H](CO)[C@H](C(=O)NCC)[C@H]2N1Cc1nccs1", "note": "(mixture of isomers)", "activity change": "inactive: -4.26%"}
{"smiles": "CC(C)NC(=O)Nc1ccc2c(c1)C(=O)N([C@@H](C)CO)C[C@@H](C)[C@H](CN(C)C(=O)CCC(F)(F)F)OCCCC[C@H](C)O2", "activity change": "inactive: 0.496%"}
{"smiles": "C[C@@H]1CCCCO[C@@H](CN(C)C(=O)Nc2cccc3ccccc23)[C@H](C)CN([C@@H](C)CO)C(=O)c2cc(NC(=O)Cc3ccccc3)ccc2O1", "activity change": "active: -80.5%"}
{"smiles": "COc1ccc2c3c(n(C)c2c1)[C@H](CO)N(C(=O)c1cnccn1)CC31CCN(C(C)=O)CC1", "activity change": "inactive: -14.7%"}
{"smiles": "Cc1ccc(S(=O)(=O)N(C)C[C@@H]2OCCCC[C@H](C)Oc3ccc(NC(=O)Nc4ccccc4)cc3C(=O)N([C@H](C)CO)C[C@@H]2C)cc1", "activity change": "inconclusive: -81.4%"}
{"smiles": "N#C[C@H]1[C@@H](c2ccc(C#Cc3ccccc3F)cc2)[C@@H](CO)N1C(=O)C1CCC1", "activity change": "inconclusive: -83.2%"}
{"smiles": "C[C@@H]1CCCCO[C@@H](CN(C)S(=O)(=O)c2ccc(F)cc2)[C@@H](C)CN([C@@H](C)CO)C(=O)c2cc(NS(=O)(=O)c3ccc(F)cc3)ccc2O1", "activity change": "inactive: -69.7%"}
{"smiles": "Cc1ccc(S(=O)(=O)Nc2ccc3c(c2)C(=O)N([C@@H](C)CO)C[C@H](C)[C@H](CN(C)C(=O)Nc2cccc4ccccc24)OCCCC[C@H](C)O3)cc1", "activity change": "inconclusive: -80.7%"}
{"smiles": "CCNC(=O)C[C@@H]1CC[C@H]2[C@H](COc3ccc(NC(=O)Nc4cccc(C)c4)cc3C(=O)N2C)O1", "activity change": "inactive: -0.575%"}
{"smiles": "C[C@H]1CN([C@@H](C)CO)C(=O)c2cccc(N(C)C)c2O[C@@H]1CN(C)Cc1ccc(C(=O)Nc2ccccc2N)cc1", "activity change": "inconclusive: -80.9%"}
{"smiles": "CCN1[C@@H]2c3ccc(-c4cccc(F)c4)c(=O)n3C[C@@H]2[C@@H](CO)[C@@H]1C(=O)N[C@@H](C)c1ccccc1", "activity change": "inactive: -10.9%"}
{"smiles": "C[C@@H]1CN([C@@H](C)CO)C(=O)c2cc(NS(=O)(=O)c3ccc(Cl)cc3)ccc2O[C@@H]1CN(C)Cc1ccc(C(=O)Nc2ccccc2N)cc1", "activity change": "inconclusive: -80.3%"}
{"smiles": "Cc1ccc(S(=O)(=O)Nc2ccc3c(c2)C(=O)N([C@@H](C)CO)C[C@@H](C)[C@H](CN(C)Cc2ccc(C(=O)Nc4ccccc4N)cc2)O3)cc1", "activity change": "inconclusive: -82.1%"}
{"smiles": "Cc1noc(C)c1S(=O)(=O)Nc1ccc2c(c1)C(=O)N([C@H](C)CO)C[C@@H](C)[C@H](CN(C)Cc1ccc(Cl)c(Cl)c1)OCCCC[C@@H](C)O2", "activity change": "inconclusive: -82.9%"}
{"smiles": "COc1ccc(NC(=O)N(C)C[C@@H]2OCCCC[C@@H](C)Oc3ccc(NC(=O)C4CCCCC4)cc3C(=O)N([C@@H](C)CO)C[C@@H]2C)cc1", "activity change": "inconclusive: -80%"}
